Hit rate of the full screen: of about 310,000 compounds, about 2,200 (0.71%) showed an effect of 50% or more. Effects have a minus sign here. This is one part of the list.

In the experiment the target is human ether-à-go-go-related gene (hERG) potassium channel (human, UniProt Q12809). The experiment can be described thus: primary screen, population patch clamp on CHO cells stably expressing hERG.
Chain of human ether-à-go-go-related gene (hERG) potassium channel (Q12809 whole entry, looked up): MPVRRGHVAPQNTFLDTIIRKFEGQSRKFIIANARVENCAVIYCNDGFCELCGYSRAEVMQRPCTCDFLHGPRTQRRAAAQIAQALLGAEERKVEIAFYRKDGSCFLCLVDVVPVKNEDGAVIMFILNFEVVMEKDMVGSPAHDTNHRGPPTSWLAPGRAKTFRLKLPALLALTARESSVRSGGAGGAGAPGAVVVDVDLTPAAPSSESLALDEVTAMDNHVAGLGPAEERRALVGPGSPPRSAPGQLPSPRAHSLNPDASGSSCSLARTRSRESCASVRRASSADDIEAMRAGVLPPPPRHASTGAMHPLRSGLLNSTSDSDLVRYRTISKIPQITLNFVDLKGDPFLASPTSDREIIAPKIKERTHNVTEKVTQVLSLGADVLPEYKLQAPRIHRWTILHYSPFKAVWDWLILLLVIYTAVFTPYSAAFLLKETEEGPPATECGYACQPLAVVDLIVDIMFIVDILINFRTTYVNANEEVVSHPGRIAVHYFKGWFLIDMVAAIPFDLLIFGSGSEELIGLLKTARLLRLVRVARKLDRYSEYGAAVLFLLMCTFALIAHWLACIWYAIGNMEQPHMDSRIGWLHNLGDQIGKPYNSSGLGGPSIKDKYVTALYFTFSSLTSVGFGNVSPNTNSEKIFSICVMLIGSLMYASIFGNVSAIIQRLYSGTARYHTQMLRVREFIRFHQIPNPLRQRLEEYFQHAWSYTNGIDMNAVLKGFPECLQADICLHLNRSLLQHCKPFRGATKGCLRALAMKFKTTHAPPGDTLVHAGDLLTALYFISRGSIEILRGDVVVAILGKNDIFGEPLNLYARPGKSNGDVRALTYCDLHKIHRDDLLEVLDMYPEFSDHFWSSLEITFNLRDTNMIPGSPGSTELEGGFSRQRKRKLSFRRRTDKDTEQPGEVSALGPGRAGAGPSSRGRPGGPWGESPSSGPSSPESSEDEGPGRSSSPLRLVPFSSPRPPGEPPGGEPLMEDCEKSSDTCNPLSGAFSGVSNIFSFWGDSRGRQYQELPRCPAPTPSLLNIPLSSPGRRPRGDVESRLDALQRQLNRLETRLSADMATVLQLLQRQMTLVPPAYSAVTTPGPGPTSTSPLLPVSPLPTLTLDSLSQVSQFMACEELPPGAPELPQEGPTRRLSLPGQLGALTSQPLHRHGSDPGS
As for `COc1ccc(-c2ccnc(SCC(=O)Nc3ccccn3)n2)cc1`, the “hERG current change (%, negative = inhibition) at 1uM” value is reported as 7.35%.
As to `COc1ccc(-c2nc(CS(=O)CC(=O)N3CCN(C)CC3)c(C)o2)cc1OC` (centres unmarked), the “hERG current change (%, negative = inhibition) at 1uM” value worked out at 7.32%.
The figure for `Cc1cc(OCC(=O)N2CCC(O)CC2)c2c(C)cc(=O)oc2c1` is 15.5%; for `COCCCn1c(N)c(C(=O)OCCOC)c2nc3ccccc3nc21` it is -6.84%.
`Cc1cccc(-c2nnc(SCc3ccccc3)o2)c1`: the “hERG current change (%, negative = inhibition) at 1uM” value was found to be 9.96%.
The value for `Cc1cccc(C(=O)NNC(=O)c2c(O)c3ccccc3n(C)c2=O)c1` was 12.6%; that for `CSc1ccc(S(=O)(=O)N2CCC(C(=O)NCC3CCCO3)CC2)cc1` (centres unmarked) was 10.3%.
The figure for `CN(Cc1ccccc1)C(=O)CN(c1ccccc1Cl)S(C)(=O)=O` is 17.3%; for `O=C(NCc1ccco1)c1sc2cccc(F)c2c1Cl` it is -0.443%; for `O=C(NC1CCN(C(=S)Nc2ccc(F)cc2)CC1)c1ccco1` it is 4.6%.
The figure for `COc1cc2c(cc1OC)C(C)N(S(=O)(=O)c1cn(C)cn1)CC2` (centres unmarked) is 9.25%.
With `Cc1ccc(Nc2ncnc3nc[nH]c23)cc1Cl`, the “hERG current change (%, negative = inhibition) at 1uM” value was determined as 15.1%.
The value for `O=c1[nH]n2c(=O)c3c([nH]c2c1N=Nc1ccccc1)CCC3` was 13.5%.
The figure for `O=C(Cn1ccc2ccccc2c1=O)NCC1COc2ccccc2O1` (centres unmarked) is -0.756%.
The figure for `O=S1(=O)CCN(C(CCO)c2cccc(C(F)(F)F)c2)CC1` (centres unmarked) is -15.2%; for `COc1ccccc1CC(=O)N1CCCc2cc(C)ccc21` it is 14.5%.
On to `CN(C)c1ccc(NC(=O)CN2C3CCCC2CC(NC(=O)c2ccccc2)C3)cc1` (centres unmarked), for which the “hERG current change (%, negative = inhibition) at 1uM” value is -26.3%.
As for `Br.O=C(CN1CCCCC1)c1ccc(OC(F)F)cc1`, the “hERG current change (%, negative = inhibition) at 1uM” value is -63.4%.
On to `O=C(/C=C/c1ccc2c(c1)OCO2)N1CCN(c2ccccc2F)CC1`, for which the “hERG current change (%, negative = inhibition) at 1uM” value came to 11.2%.
The figure for `O=C(CC1CCS(=O)(=O)C1)NC1CCCCC1` (centres unmarked) is 8.04%.
As to `COc1ccc(C(=O)C[n+]2ccc(-c3nnc4n3CCCCC4)cc2)cc1.[Br-]`, the “hERG current change (%, negative = inhibition) at 1uM” value was found to be 11.8%.
The figure for `COC(=O)C1=C(C)N(Cc2ccco2)C(=O)N[C@@H]1c1ccc(Br)cc1` is 11.9%; for `COc1ccccc1CC(=O)N1CCC(CCC(=O)NC2CC2)CC1` it is 14.8%.
For `O=C(Cc1cccs1)Nc1ccc(-c2nnc(-c3ccco3)o2)cc1`, the “hERG current change (%, negative = inhibition) at 1uM” value amounted to 3.6%.
The value for `COc1ccccc1NC(=O)CN1CCC(n2nnc3cc(F)ccc32)CC1` was -12%; that for `CCOCCCNC(=O)Cn1cnc2sc(C)c(S(=O)(=O)N3CCN(c4ncccn4)CC3)c2c1=O` was 13.7%; that for `Cc1ccc(NC(=O)CN(C)C(=O)c2ccc3[nH]c4c(c3c2)CC(C)CC4)cc1` (centres unmarked) was 9.18%.
The figure for `CN(CC(=O)Nc1ccc(N2CCOCC2)cc1)C(=O)CSc1ccc(F)cc1` is 8.04%.
The figure for `Cc1ccc(NC(=O)Cn2nnc(C(=O)NCc3cccs3)c2N)cc1Cl` is 15.4%; for `Cc1c(NC(=O)Nc2ccc(Cl)cc2)c(=O)n(-c2ccccc2)n1C` it is 11%; for `O=C(NCCCNC(=O)c1ccccc1Br)c1ccccc1Br` it is 17.5%.
Take `CCCCOc1ccc(C(=O)NNC(=O)C2C3C=CC(C3)C2C(=O)O)cc1` (centres unmarked): the “hERG current change (%, negative = inhibition) at 1uM” value is 11.1%.
The value for `O=C(CCn1c(=O)[nH]c2ccccc2c1=O)NCCSCc1ccccc1` was 4.23%.
The value for `Cc1cc(NC(=O)OC2CCCCC2)ccc1[N+](=O)[O-]` was 13%.
Take `O=C(NC1CCCC1)c1cc2c(=O)n3ccccc3nc2s1`: the “hERG current change (%, negative = inhibition) at 1uM” value was 3.54%.
The figure for `CCN(CC)C(=O)Cn1c(=O)n(CCCC(=O)NCc2ccccc2)c(=O)c2sccc21` is 9.92%; for `CCOC(=O)Cc1c(C)nc2c(-c3cccc(Br)c3)c[nH]n2c1=O` it is 2.95%.
The value for `CC1=CCC2C(=O)N(c3cccc(C(=O)N(C)C4CCCCC4)c3)C(=O)C2C1` (centres unmarked) was 3.45%.
The figure for `COC(=O)c1cccc(NC(=O)CN2CCN(Cc3ccccc3)CC2)c1` is -4.12%.
With `COc1cc(OC)cc(C(=O)NCC(=O)N2CCC(C)CC2)c1`, the “hERG current change (%, negative = inhibition) at 1uM” value amounted to 18%.
The value for `COc1ccc(C2=NN(C(=O)CSc3nnc(-c4ccccc4F)o3)C(c3ccco3)C2)cc1` (centres unmarked) was 12.2%; that for `Cc1nnsc1C(=O)N1CCC(CO)(Cc2ccccc2Cl)CC1` was 9.14%; that for `CCc1ccc(C2CC(c3ccc(C)cc3)Nc3nc(N)nn32)cc1` (centres unmarked) was 8.52%.
With `CC1CC(C)CN(CCOc2ccc(Br)cc2)C1.O=C(O)C(=O)O` (centres unmarked), the “hERG current change (%, negative = inhibition) at 1uM” value is -12.4%.
The figure for `COc1ccc(CN2CCCC(C(=O)c3ccc(SC)cc3)C2)cc1Cn1cccn1` (centres unmarked) is -68.5%; for `CCOc1ccc(N=CC2=C(O)CC(c3ccco3)CC2=O)cc1` (centres unmarked) it is 9.85%.
Consider `CC(C)CCNC(=O)COC(=O)/C=C/c1ccc2ccccc2n1`, for which the “hERG current change (%, negative = inhibition) at 1uM” value was found to be 9.63%.
In the case of `CC1(C)C(Cl)C(=O)C(C(=O)c2ccccc2)C(=O)C1Cl` (centres unmarked), the “hERG current change (%, negative = inhibition) at 1uM” value is recorded as 11.6%.
The figure for `CCCC(=O)c1c[nH]c(C(=O)NCc2ccco2)c1` is 10%; for `Cc1ccc(C)n1-c1nc(=S)[nH][nH]1` it is 12.5%; for `Nc1nonc1-n1nnc(C(=O)N/N=C/c2cccc(Cl)c2)c1-c1cccs1` it is 5.76%.
Regarding `O=C(NCc1ccccc1)c1ccc(S(=O)(=O)Nc2cccc(C(F)(F)F)c2)cc1`, the “hERG current change (%, negative = inhibition) at 1uM” value is recorded as 10.6%.
The value for `CCC(=O)Nc1ccc(-c2cc3ccccc3oc2=O)cc1` was 14.3%; that for `COc1ccc(C(C)=O)cc1CN1C(=O)NC2(CCCC2)C1=O` was 2.23%; that for `COC(=O)C1=C(C)NC=C([N+](=O)[O-])C1c1ccc(OC)cc1` (centres unmarked) was -2.34%.
The value for `COc1ccc(C2OC(=O)CC2C(=O)NC(C)C)cc1` (centres unmarked) was 11.5%.
The figure for `O=C(COc1ccc(Br)cc1)NCCO` is 15.1%.
Regarding `COC(=O)CSc1cc(C(=O)c2nccn2C)c2ccccc2n1`, the “hERG current change (%, negative = inhibition) at 1uM” value came to 9.32%.
The value for `CCOCCCn1c(SCC(=O)N2CCOCC2)nc2ccccc2c1=O` was -13%.
On to `C/C(=N/Nc1ccc(C)cc1)C1(C)N(O)C(C)(C)C(c2ccco2)=[N+]1[O-]` (centres unmarked), for which the “hERG current change (%, negative = inhibition) at 1uM” value is recorded as 2.95%.
On to `O=c1c2c(nc3n1CCCCC3)sc1c(O)cccc12`, for which the “hERG current change (%, negative = inhibition) at 1uM” value was -2.34%.
For `CCOC(=O)N1CCN(C(=O)CSC2=NS(=O)(=O)c3cc(F)ccc3N2)CC1`, the “hERG current change (%, negative = inhibition) at 1uM” value is 6.8%.
`Cc1ccc(NS(=O)(=O)c2cccc(C(=O)NCCCN3CCCC3=O)c2)cc1`: the “hERG current change (%, negative = inhibition) at 1uM” value is given as 10.9%.
The figure for `C/C=C1\COC(C(=O)NCc2ccncc2)(C(F)(F)F)C=C1C=C1CCCCC1` (centres unmarked) is 12.8%; for `CCn1c(=NC(=O)CS(=O)(=O)c2ccc(F)cc2)sc2cccc(OC)c21` it is 7.26%; for `CCCCn1c(N)c(N(CCC(C)C)C(=O)CSc2nncn2-c2ccccc2)c(=O)[nH]c1=O` it is 12.2%.
The figure for `c1cncc(COC2CCCN(Cc3nc(-c4cccs4)no3)C2)c1` (centres unmarked) is 15.7%.
The value for `COC(=O)C(CC(=O)c1ccc(Cl)cc1)c1ccc(C)cc1` (centres unmarked) was 12.7%; that for `CN(C)CCN(Cc1ccco1)S(=O)(=O)c1csc(C(N)=O)c1` was 16.9%; that for `COC(=O)c1ccccc1NC(=O)Cn1c(=O)n(CCC(=O)NC2CCN(Cc3ccccc3)CC2)c(=O)c2ccccc21` was 1.13%.
As to `N/C(=N\OC(=O)c1cc([N+](=O)[O-])ccc1Cl)c1ccccn1`, the “hERG current change (%, negative = inhibition) at 1uM” value is 15.2%.
The value for `CN(C(=O)COc1ccccc1C(=O)NCCc1ccccc1)c1ccccc1` was 4.39%; that for `COc1ccc(NC(=O)N(Cc2cc3ccc(OC)cc3[nH]c2=O)CC2CCCO2)cc1` (centres unmarked) was -10.1%.
The value for `CCOC(=O)N1CCN(C(=O)CNC2CCCCCCC2)CC1.O=C(O)C(=O)O` was 18.3%; that for `Cc1cccc(C)c1NC(=O)CSc1nc(-c2ccco2)cc(C(F)(F)F)n1` was 3.71%; that for `C=CCn1c(COc2ccc(Cl)cc2)nnc1SCC(=O)N/N=C/c1cccc(O)c1` was 4.13%.
Turning to `CC1(OC(=O)c2cccs2)C(=O)C=C2C=C3CCCN3C=C2C1=O` (centres unmarked), the “hERG current change (%, negative = inhibition) at 1uM” value is recorded as 14.9%.
The figure for `Nc1nonc1-n1nnc(C(=O)N/N=C/c2cccnc2)c1-c1ccccc1` is 9.49%; for `CCOC(=O)C(CCCOc1cccc(OC)c1)C(=O)OCC` it is -9.15%; for `Fc1cccc(Cl)c1CSc1nnc(CN2CCOCC2)n1-c1ccccc1` it is 13.4%.
The figure for `COc1ccccc1N(CC(=O)NCc1ccc(F)cc1)C(=O)CCC(=O)Nc1ccccn1` is 6.44%.
The figure for `CC(C)(C)c1ccc(/C=C/C(=O)N2CCc3ccccc3C2)cc1` is 11%; for `O=C(CNC(=O)c1ccccc1)OCc1ccc([N+](=O)[O-])cc1` it is 2.81%.
Turning to `COC(=O)c1ccc(NC(=O)c2cccc(NC(=O)c3ccco3)c2)cc1`, the “hERG current change (%, negative = inhibition) at 1uM” value stood at 5.26%.
The value for `CC(C)(C)CC(=O)Nc1cc2c3c(c1)CCN3C(=O)CC2` was 4.67%; that for `CCOCCc1nnc(NC(=O)c2cccc(F)c2)s1` was 7.75%.
The value for `CCCS(=O)(=O)NCCc1cc2cc(C)c(C)cc2[nH]c1=O` was 2.88%.
Consider `CNC(C)C#Cc1ccc2sc3cccc(OC)c3c(=O)c2c1` (centres unmarked), for which the “hERG current change (%, negative = inhibition) at 1uM” value came to 12.5%.
On to `CCCN1C(=O)/C(=C/c2ccc(C)s2)SC1=Nc1ccc(OC)cc1`, for which the “hERG current change (%, negative = inhibition) at 1uM” value is 7.6%.

(Values after PMC4336329 (PLoS ONE, 2015).)
